Laboratory results as given in article PMC4336329 (PLoS ONE, 2015).
The campaign covered roughly 310,000 compounds. About 2,200 (0.71%) showed an effect of 50% or more. The effect is printed as a negative number. The list shows a part of the results.

What follows are compounds tested against human ether-à-go-go-related gene (hERG) potassium channel (human, UniProt Q12809) (assay: primary screen, population patch clamp on CHO cells stably expressing hERG).
Chain of human ether-à-go-go-related gene (hERG) potassium channel (Q12809 whole entry, looked up): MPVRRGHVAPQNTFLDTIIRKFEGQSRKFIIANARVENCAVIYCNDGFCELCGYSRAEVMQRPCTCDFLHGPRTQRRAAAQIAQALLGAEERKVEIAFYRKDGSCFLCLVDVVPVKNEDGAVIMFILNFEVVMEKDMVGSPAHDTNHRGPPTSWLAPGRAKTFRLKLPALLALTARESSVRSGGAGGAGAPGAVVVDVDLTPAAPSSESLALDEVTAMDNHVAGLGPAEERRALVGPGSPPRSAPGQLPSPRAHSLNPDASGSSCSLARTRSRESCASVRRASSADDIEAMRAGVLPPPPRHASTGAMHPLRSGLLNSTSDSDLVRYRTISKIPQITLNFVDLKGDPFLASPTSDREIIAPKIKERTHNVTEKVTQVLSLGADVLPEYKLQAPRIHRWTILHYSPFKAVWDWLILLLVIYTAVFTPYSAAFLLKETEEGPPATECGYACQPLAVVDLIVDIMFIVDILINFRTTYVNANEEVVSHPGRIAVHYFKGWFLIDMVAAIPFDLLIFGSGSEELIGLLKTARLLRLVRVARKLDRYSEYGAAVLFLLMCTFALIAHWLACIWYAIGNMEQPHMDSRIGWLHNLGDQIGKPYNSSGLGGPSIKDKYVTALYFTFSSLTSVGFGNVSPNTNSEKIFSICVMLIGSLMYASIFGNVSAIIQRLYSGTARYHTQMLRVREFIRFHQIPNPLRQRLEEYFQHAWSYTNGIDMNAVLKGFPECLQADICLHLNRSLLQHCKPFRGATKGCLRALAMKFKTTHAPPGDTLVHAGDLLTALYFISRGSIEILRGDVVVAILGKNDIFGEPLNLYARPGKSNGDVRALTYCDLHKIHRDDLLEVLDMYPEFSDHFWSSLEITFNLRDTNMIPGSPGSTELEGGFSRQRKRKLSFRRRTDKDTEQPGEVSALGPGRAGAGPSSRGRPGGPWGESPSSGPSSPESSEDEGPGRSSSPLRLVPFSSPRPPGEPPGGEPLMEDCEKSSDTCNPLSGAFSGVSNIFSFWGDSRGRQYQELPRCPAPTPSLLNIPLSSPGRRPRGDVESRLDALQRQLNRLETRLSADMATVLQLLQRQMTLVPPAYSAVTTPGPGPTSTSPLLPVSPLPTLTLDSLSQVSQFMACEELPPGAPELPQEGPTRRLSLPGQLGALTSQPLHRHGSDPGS
With `CCc1ccc(OCC(=O)NNC(=O)CSc2ncnc3sc(C)c(C)c23)cc1` the “hERG current change (%, negative = inhibition) at 1uM” value was 4.36%.
In the case of `O=C(CN1C(=O)NC2(CCCCC2)C1=O)Nc1ccc(F)cc1`, the “hERG current change (%, negative = inhibition) at 1uM” value is reported as -1.97%.
`Cc1nnc(N2CCc3ccccc3C2)[nH]c1=O` was tested, and the “hERG current change (%, negative = inhibition) at 1uM” value was 2.63%.
With `O=C(NC1CCCCC1)c1cc(S(=O)(=O)N2CCOCC2)c(Cl)cc1Cl` the “hERG current change (%, negative = inhibition) at 1uM” value was 24.2%.
With `COC(=O)C1=C(c2ccc(Cl)c(C(F)(F)F)c2)C[C@@H]2CC[C@H]1N2C(=O)NC1CC1` the “hERG current change (%, negative = inhibition) at 1uM” value was 8.33%.
For `COc1cc(OC)c(NC(=O)C2CCCO2)cc1Cl` (stereo not drawn), the “hERG current change (%, negative = inhibition) at 1uM” value was 5.2%.
In the case of `Cc1cc2nnc(SCC(=O)NCc3cccs3)n2c(N)n1`, the “hERG current change (%, negative = inhibition) at 1uM” value is reported as -7.33%.
In the case of `C=C(C)Cn1c(-c2ccncc2)n[nH]c1=S`, the “hERG current change (%, negative = inhibition) at 1uM” value is reported as 13.7%.
With `COc1ccc(C)cc1N1CC(C(=O)Nc2ccccc2N2CCCCC2)CC1=O` (stereo not drawn) the “hERG current change (%, negative = inhibition) at 1uM” value was -0.99%.
`CN(CCOc1ccc(Br)cc1)CC(O)COc1ccc(C#N)cc1` (stereo not drawn) was tested, and the “hERG current change (%, negative = inhibition) at 1uM” value was 7.66%.
`O=C(NCc1cccnc1)C1CCCCN1S(=O)(=O)c1ccc(F)cc1` (stereo not drawn) was tested, and the “hERG current change (%, negative = inhibition) at 1uM” value was -9.57%.
In the case of `COc1ccc(-c2nc(-c3ccccc3)no2)c(OC)c1`, the “hERG current change (%, negative = inhibition) at 1uM” value is reported as 6.88%.
For `CS(=O)(=O)c1nc2c(cc1C#N)CCCC2`, the “hERG current change (%, negative = inhibition) at 1uM” value was 11.4%.
`COc1ccc2c3n(nc2c1)CCN=C3c1ccc(C)cc1` was tested, and the “hERG current change (%, negative = inhibition) at 1uM” value was 0.515%.
For `O=C(N/N=C/c1cn(Cc2ccccc2)c2ccccc12)c1ccncc1`, the “hERG current change (%, negative = inhibition) at 1uM” value was 12.3%.
With `O=C(c1ccc(CSc2nc3ccncc3[nH]2)cc1)N1CCCCCC1` the “hERG current change (%, negative = inhibition) at 1uM” value was -0.856%.
`COC(=O)c1ccccc1S(=O)(=O)NC(=O)c1ccccc1` was tested, and the “hERG current change (%, negative = inhibition) at 1uM” value was 1.38%.
In the case of `Cc1ccc(-c2noc(C3CCCN(C(=O)c4ccccc4)C3)n2)o1` (stereo not drawn), the “hERG current change (%, negative = inhibition) at 1uM” value is reported as 6.19%.
`COc1ccc(CC(=O)Nc2ccccc2N2CCOCC2)cc1OC` was tested, and the “hERG current change (%, negative = inhibition) at 1uM” value was 17.2%.
For `CCN(CC)CCOC(=O)C12CC3CC(CC(C3)C1)C2`, the “hERG current change (%, negative = inhibition) at 1uM” value was 2.53%.
In the case of `CCN1C(=O)CC(N2CCC(c3nc4ccccc4[nH]3)CC2)C1=O` (stereo not drawn), the “hERG current change (%, negative = inhibition) at 1uM” value is reported as 2.33%.
`COC(=O)[C@@]1(Cc2ccc(OC)cc2)[C@H]2c3cc(C(=O)N4CCCC4)n(CCSCCO)c3C[C@H]2CN1C(=O)c1ccccc1` was tested, and the “hERG current change (%, negative = inhibition) at 1uM” value was 4.2%.
In the case of `O=C(CSc1nc(-c2ccccc2F)nc2nc[nH]c12)Nc1c(Cl)cc(Cl)cc1Cl`, the “hERG current change (%, negative = inhibition) at 1uM” value is reported as -2.56%.
`Cc1ccc2c(c1)N(CCC(=O)NCc1ccco1)C(=O)CO2` was tested, and the “hERG current change (%, negative = inhibition) at 1uM” value was -0.237%.
In the case of `CC(C)(C)NC(=O)c1cnn2c1NC(c1ccc(F)cc1)CC2C(F)(F)F` (stereo not drawn), the “hERG current change (%, negative = inhibition) at 1uM” value is reported as 2.59%.
For `N#C/C(=C/c1ccc(N2CCCCCC2)o1)c1ccc(F)cc1`, the “hERG current change (%, negative = inhibition) at 1uM” value was 16.2%.
For `CC(NS(=O)(=O)c1ccc(Br)cc1)C(=O)NCc1ccco1` (stereo not drawn), the “hERG current change (%, negative = inhibition) at 1uM” value was 6.69%.
`CC(Sc1ccc2ccccc2c1)C(=O)NC(N)=O` (stereo not drawn) was tested, and the “hERG current change (%, negative = inhibition) at 1uM” value was 10.5%.
For `COC(=O)C(C)N(C#N)c1nc(NC(C)C)nc(SC)n1` (stereo not drawn), the “hERG current change (%, negative = inhibition) at 1uM” value was 7.39%.
In the case of `Cc1cc(C(F)(F)F)nn1Cc1n[nH]c(=S)n1-c1ccc(Cl)cc1`, the “hERG current change (%, negative = inhibition) at 1uM” value is reported as 17%.
In the case of `CCc1noc(C)c1C(=O)N1CCCC(CCC(=O)NCc2cccc(OC)c2)C1` (stereo not drawn), the “hERG current change (%, negative = inhibition) at 1uM” value is reported as 15.5%.
In the case of `O=C(NCc1ccccc1F)c1cccc(S(=O)(=O)N2CCCCCC2)c1`, the “hERG current change (%, negative = inhibition) at 1uM” value is reported as 8.04%.
With `Cc1ccc(-c2cc(C#N)c(=O)n(Cc3c(Cl)cccc3Cl)c2)cc1` the “hERG current change (%, negative = inhibition) at 1uM” value was 8.11%.
For `COc1ccccc1N1CCN(S(=O)(=O)c2cn(C)cn2)CC1`, the “hERG current change (%, negative = inhibition) at 1uM” value was 16.6%.
For `CC(C)(C)N=C1NN=C(c2cc3ccccc3o2)CS1`, the “hERG current change (%, negative = inhibition) at 1uM” value was 9.44%.
In the case of `Cc1ccc(-n2nc(C(=O)O)cc2-c2ccccc2Cl)cc1`, the “hERG current change (%, negative = inhibition) at 1uM” value is reported as 18.9%.
With `O=C(CN1CC(c2ccccc2)CC1=O)OCc1ccccc1F` (stereo not drawn) the “hERG current change (%, negative = inhibition) at 1uM” value was 2.02%.
`COc1ccc(NC(=O)[C@H](CCS(C)(=O)=O)N2Cc3ccccc3C2=O)c(OC)c1` was tested, and the “hERG current change (%, negative = inhibition) at 1uM” value was 18.2%.
`CCC(Sc1ccc2nnc(-c3ccc(OC)c(OC)c3)n2n1)C(=O)O` (stereo not drawn) was tested, and the “hERG current change (%, negative = inhibition) at 1uM” value was -4.86%.
For `COc1ccc(OCc2nnc3n2N=C(c2ccccc2)C(CC(=O)O)S3)cc1` (stereo not drawn), the “hERG current change (%, negative = inhibition) at 1uM” value was 13.8%.
`C=CCn1c(CCNC(=O)c2ccc(Cl)c(Cl)c2)nnc1SCCOc1ccc(OC)cc1` was tested, and the “hERG current change (%, negative = inhibition) at 1uM” value was -2.86%.
In the case of `Cc1cccc(N2C(=O)CCC2=O)n1`, the “hERG current change (%, negative = inhibition) at 1uM” value is reported as -1.13%.
In the case of `O=C(Nc1ccc(S(=O)(=O)N2CCN(Cc3ccccc3)CC2)cc1)c1cnccn1`, the “hERG current change (%, negative = inhibition) at 1uM” value is reported as 12.7%.
For `Cc1ccc(CN2CCN(Cc3cnc(C)s3)CC2CCO)o1` (stereo not drawn), the “hERG current change (%, negative = inhibition) at 1uM” value was 6.85%.
`Cc1ccc(S(=O)(=O)C2(C(=O)NC3CCCCC3)CC2)cc1` was tested, and the “hERG current change (%, negative = inhibition) at 1uM” value was 8.66%.
